# In the supplement of paper PMC8728848:
# The list shows a part of the results.
# How the values were obtained:
# Assay in all cases: glycan array binding signal (z-score within array); higher = stronger binding
# Conditions in all cases: glycan notation: IUPAC condensed, linker removed
# [1] = biological target: Neu5Ac(a2-3)[Neu5Ac(a2-6)]GalNAc
# Summary of the method: (§1)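 Arrays were curated from the Consortium for Functional Glycomics database, 3228 in total, and kept only where the protein sequence was available. Binding is expressed as a within-array Z-score. This score was averaged across arrays of the same protein sequence at different concentrations or buffers and across linkers, and negative values can be read as non-binding.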
# Neu5Ac(a2-6)Gal = biological target: Neu5Ac(a2-6)Gal
# Summary of the method: as §1
# Neu5Ac(a2-6)Gal(b1-4)Glc = biological target: Neu5Ac(a2-6)Gal(b1-4)Glc
# Summary of the method: as §1
# [2] = biological target: Neu5Ac(a2-6)Gal(b1-4)GlcNAc
# Summary of the method: as §1
# [3] = biological target: Neu5Ac(a2-6)Gal(b1-4)GlcNAc(b1-2)Man(a1-3)Man(b1-4)GlcNAc(b1-4)GlcNAc
# Summary of the method: as §1
# [4] = biological target: Neu5Ac(a2-6)Gal(b1-4)GlcNAc(b1-2)Man(a1-3)[Gal(b1-4)GlcNAc(b1-2)Man(a1-6)]Man(b1-4)GlcNAc(b1-4)GlcNAc
# Summary of the method: as §1
# [5] = biological target: Neu5Ac(a2-6)Gal(b1-4)GlcNAc(b1-2)Man(a1-3)[GlcNAc(b1-2)Man(a1-6)]Man(b1-4)GlcNAc(b1-4)GlcNAc
# Summary of the method: as §1
# [6] = biological target: Neu5Ac(a2-6)Gal(b1-4)GlcNAc(b1-2)Man(a1-3)[GlcNAc(b1-2)Man(b1-4)GlcNAc(b1-2)Man(a1-6)]Man(b1-4)GlcNAc(b1-4)GlcNAc
# Summary of the method: as §1
# [7] = biological target: Neu5Ac(a2-6)Gal(b1-4)GlcNAc(b1-2)Man(a1-3)[Man(a1-6)]Man(b1-4)GlcNAc(b1-4)GlcNAc
# Summary of the method: as §1
# [8] = biological target: Neu5Ac(a2-6)Gal(b1-4)GlcNAc(b1-2)Man(a1-3)[Neu5Ac(a2-6)Gal(b1-4)GlcNAc(b1-2)Man(a1-6)]Man(b1-4)GlcNAc(b1-4)GlcNAc
# Summary of the method: as §1
# [9] = biological target: Neu5Ac(a2-6)Gal(b1-4)GlcNAc(b1-2)Man(a1-6)Man(b1-4)GlcNAc(b1-4)GlcNAc
# Summary of the method: as §1
# [10] = biological target: Neu5Ac(a2-6)Gal(b1-4)GlcNAc(b1-2)Man(a1-6)[Gal(b1-4)GlcNAc(b1-2)Man(a1-3)]Man(b1-4)GlcNAc(b1-4)GlcNAc
# Summary of the method: as §1
# [11] = biological target: Neu5Ac(a2-6)Gal(b1-4)GlcNAc(b1-2)Man(a1-6)[GlcNAc(b1-2)Man(a1-3)]Man(b1-4)GlcNAc(b1-4)GlcNAc
# Summary of the method: as §1
# [12] = biological target: Neu5Ac(a2-6)Gal(b1-4)GlcNAc(b1-2)Man(a1-6)[Man(a1-3)]Man(b1-4)GlcNAc(b1-4)GlcNAc
# Summary of the method: as §1
# [13] = biological target: Neu5Ac(a2-6)Gal(b1-4)GlcNAc(b1-3)Gal(b1-3)GlcNAc
# Summary of the method: as §1
# [14] = biological target: Neu5Ac(a2-6)Gal(b1-4)GlcNAc(b1-3)Gal(b1-4)GlcNAc
# Summary of the method: as §1
# [15] = biological target: Neu5Ac(a2-6)Gal(b1-4)GlcNAc(b1-3)Gal(b1-4)GlcNAc(b1-3)Gal(b1-4)GlcNAc
# Summary of the method: as §1
# [16] = biological target: Neu5Ac(a2-6)Gal(b1-4)GlcNAc(b1-3)Gal(b1-4)[Fuc(a1-3)]GlcNAc(b1-3)Gal(b1-4)[Fuc(a1-3)]GlcNAc
# Summary of the method: as §1
# [17] = biological target: Neu5Ac(a2-6)Gal(b1-4)GlcNAc(b1-3)GalNAc
# Summary of the method: as §1
# [18] = biological target: Neu5Ac(a2-6)Gal(b1-4)GlcNAc6S
# Summary of the method: as §1
# Neu5Ac(a2-6)GalNAc = biological target: Neu5Ac(a2-6)GalNAc
# Summary of the method: as §1
# [19] = biological target: Neu5Ac(a2-6)GalNAc(b1-4)GlcNAc
# Summary of the method: as §1
# [20] = biological target: Neu5Ac(a2-6)GlcNAc(b1-4)GlcNAc
# Summary of the method: as §1
# [21] = biological target: Neu5Ac(a2-6)GlcNAc(b1-4)GlcNAc(b1-4)GlcNAc
# Summary of the method: as §1
# Neu5Ac(a2-8)Neu5Ac = biological target: Neu5Ac(a2-8)Neu5Ac
# Summary of the method: as §1
# [22] = biological target: Neu5Ac(a2-8)Neu5Ac(a2-3)Gal(b1-4)Glc
# Summary of the method: as §1
# [23] = biological target: Neu5Ac(a2-8)Neu5Ac(a2-3)[GalNAc(b1-4)]Gal(b1-4)Glc
# Summary of the method: as §1
# [24] = biological target: Neu5Ac(a2-8)Neu5Ac(a2-8)Neu5Ac
# Summary of the method: as §1
# [25] = biological target: Neu5Ac(a2-8)Neu5Ac(a2-8)Neu5Ac(a2-3)Gal(b1-4)Glc
# Summary of the method: as §1
# [26] = biological target: Neu5Ac(a2-8)Neu5Ac(a2-8)Neu5Ac(a2-3)[GalNAc(b1-4)]Gal(b1-4)Glc
# Summary of the method: as §1
# [27] = biological target: Neu5Ac(a2-8)Neu5Ac(a2-8)Neu5Ac(a2-8)Neu5Ac(a2-3)[GalNAc(b1-4)]Gal(b1-4)Glc
# Summary of the method: as §1
# [28] = biological target: Neu5Ac(b2-6)Gal(b1-4)GlcNAc
# Summary of the method: as §1
# Neu5Ac(b2-6)GalNAc = biological target: Neu5Ac(b2-6)GalNAc
# Summary of the method: as §1
# [29] = biological target: Neu5Ac9Ac(a2-3)Gal(b1-3)GlcNAc
# Summary of the method: as §1
# [30] = biological target: Neu5Ac9Ac(a2-3)Gal(b1-4)GlcNAc
# Summary of the method: as §1
# [31] = biological target: Neu5Ac9Ac(a2-6)Gal(b1-4)GlcNAc
# Summary of the method: as §1
# [32] = biological target: Neu5Gc(a2-3)Gal(b1-3)GlcNAc
# Summary of the method: as §1
# [33] = biological target: Neu5Gc(a2-3)Gal(b1-3)[Fuc(a1-4)]GlcNAc
# Summary of the method: as §1
# Neu5Gc(a2-3)Gal(b1-4)Glc = biological target: Neu5Gc(a2-3)Gal(b1-4)Glc
# Summary of the method: as §1
# [34] = biological target: Neu5Gc(a2-3)Gal(b1-4)GlcNAc
# Summary of the method: as §1
# [35] = biological target: Neu5Gc(a2-3)Gal(b1-4)[Fuc(a1-3)]GlcNAc
# Summary of the method: as §1
# [36] = biological target: Neu5Gc(a2-6)Gal(b1-4)GlcNAc
# Summary of the method: as §1
# Neu5Gc(a2-6)GalNAc = biological target: Neu5Gc(a2-6)GalNAc
# Summary of the method: as §1
# [37] = biological target: Neu5Gc(b2-6)Gal(b1-4)GlcNAc
# Summary of the method: as §1
binder,measurement,setting,value
"GIINTLQKYYCRVRGGRCAVLSCLPKEEQIGKCSTRGRKCCRRKK [Beta-Defensin 3 (Homo sapiens), P81534]",glycan array binding signal (z-score),[1],0.117
same,glycan array binding signal (z-score),Neu5Ac(a2-6)Gal,0.274
same,glycan array binding signal (z-score),Neu5Ac(a2-6)Gal(b1-4)Glc,-0.294
same,glycan array binding signal (z-score),[2],-0.021
same,glycan array binding signal (z-score),[3],-0.441
same,glycan array binding signal (z-score),[4],-0.467
same,glycan array binding signal (z-score),[5],-0.585
same,glycan array binding signal (z-score),[6],-0.583
same,glycan array binding signal (z-score),[7],-0.313
same,glycan array binding signal (z-score),[8],-0.472
same,glycan array binding signal (z-score),[9],-0.508
same,glycan array binding signal (z-score),[10],-0.58
same,glycan array binding signal (z-score),[11],-0.404
same,glycan array binding signal (z-score),[12],-0.597
same,glycan array binding signal (z-score),[13],2.47
same,glycan array binding signal (z-score),[14],-0.64
same,glycan array binding signal (z-score),[15],0.135
same,glycan array binding signal (z-score),[16],-0.423
same,glycan array binding signal (z-score),[17],1.54
same,glycan array binding signal (z-score),[18],2.57
same,glycan array binding signal (z-score),Neu5Ac(a2-6)GalNAc,-0.423
same,glycan array binding signal (z-score),[19],-0.594
same,glycan array binding signal (z-score),[20],-0.292
same,glycan array binding signal (z-score),[21],-0.622
same,glycan array binding signal (z-score),Neu5Ac(a2-8)Neu5Ac,-0.345
same,glycan array binding signal (z-score),[22],-0.416
same,glycan array binding signal (z-score),[23],-0.591
same,glycan array binding signal (z-score),[24],-0.341
same,glycan array binding signal (z-score),[25],-0.558
same,glycan array binding signal (z-score),[26],-0.582
same,glycan array binding signal (z-score),[27],-0.409
same,glycan array binding signal (z-score),[28],0.104
same,glycan array binding signal (z-score),Neu5Ac(b2-6)GalNAc,-0.1
same,glycan array binding signal (z-score),[29],-0.107
same,glycan array binding signal (z-score),[30],-0.363
same,glycan array binding signal (z-score),[31],-0.397
same,glycan array binding signal (z-score),[32],0.08
same,glycan array binding signal (z-score),[33],-0.197
same,glycan array binding signal (z-score),Neu5Gc(a2-3)Gal(b1-4)Glc,-0.025
same,glycan array binding signal (z-score),[34],-0.111
same,glycan array binding signal (z-score),[35],-0.09
same,glycan array binding signal (z-score),[36],0.053
same,glycan array binding signal (z-score),Neu5Gc(a2-6)GalNAc,0.608
same,glycan array binding signal (z-score),[37],-0.209
